Experimental data from the RNAGym collection of RNA variant scans (doi:10.1093/nar/gkz1192).
The source gives no read counts; variants with many changes may rest on few reads.

B1: CPEB3 Ribozyme (parent)
chain: UAACAGGGGGCCACAGCAGAAGCGUUCACGUCGCAGCCCCUGUCAGAUUCUGGUGAAUCUGCGAAUUCUGCUGUAUAUCUC

Variants of: B1
Experiment: self-cleavage, relative activity (ratio to wild type); higher = more cleavage; in vitro, sequencing
Method in brief: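 CPEB3 self-cleaving ribozyme mutant libraries were made by rounds of error-prone PCR, barcoded, and transcribed in vitro with T7 RNA polymerase for 5 hours at 37°C. Cleavage occurred during transcription and a 15 min DNase I step before EDTA stop. RNAs were reverse transcribed with template switching and Illumina-sequenced, with DNA sequencing mapping barcodes to variants. Relative activity is the variant's cleaved/total read fraction divided by wild type's (minimum 5 reads), averaged across three batches.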

Row | Variant | self-cleavage
1 | A13U U25A U58C U60A A64G U78C | 0.08
2 | A13U G24A U26C A28G U60A G63A U69A | 0.06
3 | A13U U26C A45G A56G A64G | 0.37
4 | A13U U41C U72C | 1.15
5 | A13U G30A U31C A56G | 0.07
6 | C14U A35G U51C | 1.28
7 | C14U A21U U26C A28G U72C | 0.28
8 | A13U G19A U26A | 0.08
9 | A13U U41G A47U U48A | 0.12
10 | C14U A21G U25C C38U A57G U78C | 0.09
11 | A13U C37A A45U U54C | 0.03
12 | A13U G61U U78C | 0.14
13 | C14G A15C C37U U69G | 0.06
14 | C14A U41A A57G | 0.11
15 | C14G A21G U26A U60C U66C U69C U76A | 0.09
16 | C14A A45U A65G | 0.12
17 | A13U G36C G42A | 0.23
18 | A13U U25G A35G | 0.89
19 | C14U A28G U54C A65G | 0.13
20 | A13U G22A U26C U72A | 0.13
21 | C14U A20G C38A A56G U66C C71A U80C | 0.04

Row | Variant | self-cleavage
22 | A13U U51G G52C A56U U69A | 0.33
23 | C14A A20G C32A U43G | 0.05
24 | C14U A20G G30A A77G | 0.16
25 | A13U U43C A56U A64G | 0.12
26 | C14A G19C A65G | 0.13
27 | A13U U66C U69A A77G U78A | 0.3
28 | A13U U25C A28G U48A U72A | 0.07
29 | A13U U54C A64G U72C A77U | 0.88
30 | A13U U26C A28U U31C A56G | 0.03
31 | A13U G30A U66G | 0.17
32 | A13U U26G A47G U54C A65G U80C | 0.08
33 | A13U U31C A47G U74C | 1.23
34 | A13U U54A U72A | 0.81
35 | A13U U41C A77G | 1.2
36 | A13U G22U U60A U72A | 0.05
37 | A13U G22C G46U U58C | 0.1
38 | A13U U25C A56G C71G C81U | 0.04
39 | A13U U25C A28G A45G U67C | 0.21
40 | A13U U26C U43C U54C A56G A65G U80C | 0.16
41 | A13U U31C A45U A56G | 0.09
42 | C14U A20U A28G A35G A65G | 0.12

Row | Variant | self-cleavage
43 | A13U U54C U58A | 0.24
44 | C14A A57G U67A U78A | 0.08
45 | A13U G24A C38U A57G | 0.11
46 | A13U U41C U51C U60C | 0.41
47 | C14U A15G U31C | 0.42
48 | A13U U26C G52A U78C | 0.63
49 | A13U U25C U69C U72C | 0.13
50 | C14G A21G A56G A57G U67A | 0.31
51 | C14U A35G A64G A65G U66C | 0.63
52 | C14U A18U C29U U31A | 0.07
53 | C14G A15G U72C A77G U78A | 1.27
54 | A13U U26C A45U | 0.3
55 | C14U A15G G24A U60A U66C | 0.1
56 | C14A G55U U67C | 0.09
57 | C14A U41C U43C U67C | 0.06
58 | A13U U43C U66C | 0.18
59 | C14A A56G U67C | 0.26
60 | A13U C34U U67C | 0.17
61 | C14U A20U U26C U58A | 0.15
62 | A13U U26C U43C | 0.75
63 | A13U U25A A56G U69C U80C | 0.34

Row | Variant | self-cleavage
64 | C14A U48C U72C A75U | 0.9
65 | A13U U25A U26A U51C | 0.18
66 | A13U G24A A35U U49A A65G U74C A77G | 0.04
67 | C14U A15G A18G | 0.15
68 | C14A U31C A64G | 0.33
69 | A13U U25C G33A U51C A77G | 0.06
70 | A13U U26A U48C U76C | 0.81
71 | A13U G19U U25C U41C U67C | 0.06
72 | C14A A15C A45G U51C | 0.42
73 | C14A A45G U60A U72A | 0.47
74 | A13U U31A U41C A57G U72C | 0.26
75 | A13U U48C A77G | 1.01
76 | A13U U25G C27U A56G A65G U67C U76C | 0.05
77 | A13U U31C G53C U69C | 0.2
78 | A13U U48C A57C U78C | 0.92
79 | A13U G16U U25C U51G | 0.08
80 | C14G A15G A20C C79U | 0.13
81 | C14A U26G C32U U49C | 0.04
82 | C14U A35G G70A | 1.19
83 | A13U G24U A64G | 0.08
84 | A13U C34U U41C U49C U51A U80C | 0.13
